# Data taken from PubChem BioAssay (NCATS).
# Several values for one entry are separate records, joined by “and”; a condition that tells them apart may be missing. Equal values may be shown once. Inconclusive means that the source gave no clear call. Such entries were picked first, then a sample of the others. For some of these results: Potencies of inconclusive entries are doubtful fits and often do not repeat. Activity calls are given as the source filed them. The call rests on the fitted dose curve; in most records, active means well fitted curve in the direction sought with a large enough effect; inconclusive means small, poorly fitted or top-dose-only effect, or another doubt; inactive means no such curve, though single readings can be large; an effect the other way counts as inactive or inconclusive.
# Tests used:
# CRL-7250 = normal cell line; assay: Cytotoxic Profiling of Annotated Libraries Using Quantitative High-Throughput Screening (AID 1296008); settings: Five cell lines viability, CellTiter-Glo ATP luminescence, 48-72 h; max response: stronger effect = lower value; further: nearly all actives have a fitted effect of over 60% in size; on max response: on the % scale 0 is the no-effect control and ±100 the full control effect
# Summary of the method: (§1)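 Compounds were pin-transferred onto cells and incubated 48 or 72 hr at 37 degree Celsius, 95% humidity. CellTiter-Glo was added, plates sat 10 min at room temperature, then ATP-coupled luminescence was imaged as the viability read-out.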
# HEK293 = assay: as above; settings: Five cell lines viability, CellTiter-Glo ATP luminescence, 48-72 h; max response: stronger effect = lower value
# Summary of the method: as §1
# NIH3T3 = assay: as above; settings: Five cell lines viability, CellTiter-Glo ATP luminescence, 48-72 h; max response: stronger effect = lower value
# Summary of the method: as §1
# MCC-13 = assay: qHTS assay to identify novel small-molecules to repurpose for Merkel cell carcinoma treatment (AID 1296009); settings: MCC and control cell lines, CellTiter-Glo viability, 72 h; series mostly up to 46 µM; further: nearly all actives have a fitted effect of over 60% in size; on activity change, negative = cytotoxicity: on the % scale 0 is the no-effect control and ±100 the full control effect
# Summary of the method: (§2)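 qHTS format: cells treated with library compounds in DMSO across 8 (NPC) or 11 (MIPE) concentrations. Readout after 72 hr at 37 degree celsius was CellTiter-Glo luminescence.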
# MKL-1 = assay: as above; settings: MCC and control cell lines, CellTiter-Glo viability, 72 h; series mostly up to 46 µM
# Summary of the method: as §2
# MKL-2 = assay: as above; settings: MCC and control cell lines, CellTiter-Glo viability, 72 h; series mostly up to 46 µM
# Summary of the method: as §2
# WaGa = assay: as above; settings: MCC and control cell lines, CellTiter-Glo viability, 72 h; series mostly up to 46 µM
# Summary of the method: as §2
# astro = assay: Drug repurposing screens with cells derived from glioblastoma tumor samples (AID 1345199); settings: viability, ATP luminescence, 48 h; activity, negative = cell killing: at 45.9 µM (top of the series); further: nearly all actives have a fitted effect of over 40% in size
# Summary of the method: (§3)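 Four patient lines of CD133+ GBM neurospheres were screened at several concentrations; hits were retested in those lines plus three slower-growing GBM lines, using 48-hour treatment and ATP-based viability.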
# [1] = qHTS assay to identify inhibitors of the type 1 interferon - major histocompatibility complex class I in skeletal muscle: Counter screen cell viability and HiBit confirmation (AID 1347412); settings: iHSKM muscle cells + IFN-b, HiBiT or CellTiter-Glo, 24 h; further: nearly all actives have a fitted effect of over 60% in size
# Summary of the method: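 HLA-B*08:01–HiBiT knock-in immortalized human myoblasts (C25cl48) stimulated with 4.0 ng/ml human IFN-beta and dosed with compound in a 12-point 1:3 titration (top final 46 uM). After 24 hrs at 37 C, HiBiT lytic luminescence or CellTiter Glo ATP read out.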
# C33A = assay: Primary qHTS to identify gynecologic anti-cancer compounds using libraries of approved drugs and bioactive compounds (AID 1345084); settings: Gynecologic cancer cell panel viability, ATPlite luminescence, 48 h; series mostly up to 57.5 µM; further: nearly all actives have a fitted effect of over 55% in size
# Summary of the method: (§4)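 Cytotoxicity screen measuring ATP content by luciferase luminescence. Each compound is applied at five concentrations for 48 h at 37 C with 5% CO2.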
# CAOV3 = assay: as above; settings: Gynecologic cancer cell panel viability, ATPlite luminescence, 48 h; series mostly up to 57.5 µM
# Summary of the method: as §4
# CASKI = assay: as above; settings: Gynecologic cancer cell panel viability, ATPlite luminescence, 48 h; activity change, negative = cytotoxicity: at 57.5 µM (top of the series)
# Summary of the method: as §4
# Es-2 = assay: as above; settings: Gynecologic cancer cell panel viability, ATPlite luminescence, 48 h; series mostly up to 57.5 µM
# Summary of the method: as §4
# HeLa = assay: as above; settings: Gynecologic cancer cell panel viability, ATPlite luminescence, 48 h; series mostly up to 57.5 µM
# Summary of the method: as §4
# W2 = assay: qHTS profiling for inhibitors of Plasmodium falciparum proliferation (AID 504749); further: nearly all actives have a fitted effect of over 60% in size; settings: P. falciparum in erythrocytes, SYBR Green DNA, 72 h; series mostly up to 28.7 µM
# Summary of the method: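 Parasite proliferation within erythrocytes, 72 h exposure. Endpoint: SYBR Green I fluorescence after overnight lysis at room temperature. Controls: 0.29 uM artemisinin, DMSO.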
# KB-3-1 = assay: Cytotoxic Profiling of Annotated Libraries Using Quantitative High-Throughput Screening (AID 1296008); settings: Five cell lines viability, CellTiter-Glo ATP luminescence, 48-72 h; max response: stronger effect = lower value; further: nearly all actives have a fitted effect of over 60% in size; on max response: on the % scale 0 is the no-effect control and ±100 the full control effect
# Summary of the method: as §1
# UISO = assay: qHTS assay to identify novel small-molecules to repurpose for Merkel cell carcinoma treatment (AID 1296009); settings: MCC and control cell lines, CellTiter-Glo viability, 72 h; series mostly up to 46 µM; further: nearly all actives have a fitted effect of over 60% in size; on activity change, negative = cytotoxicity: on the % scale 0 is the no-effect control and ±100 the full control effect
# Summary of the method: as §2
# HaCat = assay: Cytotoxic Profiling of Annotated Libraries Using Quantitative High-Throughput Screening (AID 1296008); settings: Five cell lines viability, CellTiter-Glo ATP luminescence, 48-72 h; max response: stronger effect = lower value; further: nearly all actives have a fitted effect of over 60% in size
# Summary of the method: as §1
# [2] = Drug repurposing screens with cells derived from glioblastoma tumor samples (AID 1345199); settings: GBM patient neurospheres viability, ATP luminescence, 48 h; Potency: tumour line A unless noted; activity, negative = cell killing: at 46 µM (top of the series), tumour line A unless noted; further: nearly all actives have a fitted effect of over 40% in size
# Summary of the method: as §3
# Potency means the concentration at half of the fitted maximal effect; tags describe the fitted curve by direction and shape.
compound,measurement,setting,value
C[C@H]1O[C@@H](O[C@H]2CC[C@@]3(C)[C@H](CC[C@@H]4[C@@H]3C[C@@H](O)[C@]3(C)[C@@H](C5=CC(=O)OC5)CC[C@]43O)C2)C[C@H](O)[C@@H]1O[C@H]1C[C@H](O)[C@H](O[C@H]2C[C@H](O)[C@H](O[C@@H]3O[C@H](CO)[C@@H](O)[C@H](O)[C@H]3O)[C@@H](C)O2)[C@@H](C)O1,Potency,CRL-7250,active: 0.211 µM
same,Potency,HEK293,active: 0.188 µM
same,Potency,NIH3T3,"inconclusive: 29.9 µM [inhibitor, single point]"
same,Potency,MCC-13,active: 0.335 µM
same,Potency,MKL-1,active: 0.531 µM
same,Potency,MKL-2,active: 0.299 µM
same,Potency,WaGa,"inconclusive: 0.168 µM [inhibitor, full curve]"
same,Potency,astro,active: 0.316 µM
same,Potency,[1]; Viability,"inconclusive: 0.125 µM [cytotoxic, full curve]"
same,Potency,C33A,active: 0.282 µM
same,Potency,CAOV3,active: 0.501 µM
same,Potency,CASKI,active: 1.58 µM
same,Potency,Es-2,active: 0.447 µM
CN1CCc2c(n(Cc3ccc(C(=O)NO)cc3)c3ccccc23)C1,Potency,CRL-7250,"inconclusive: 37.2 µM [inhibitor, single point]"
same,Potency,HEK293,"inconclusive: 33.2 µM [inhibitor, single point] and inconclusive: 29.1 µM [inhibitor, single point]"
same,Potency,NIH3T3,"inconclusive: 29.6 µM [inhibitor, single point]"
same,Potency,MKL-1,"inconclusive: 6.62 µM [inhibitor, partial curve]"
same,Potency,Es-2,"inconclusive: 39.8 µM [cytotoxic, partial curve, poor fit]"
same,Potency,HeLa,"inconclusive: 31.6 µM [cytotoxic, partial curve, poor fit]"
NC(=O)C(=O)N/N=C/c1ccc([N+](=O)[O-])o1,Potency,W2,"inconclusive: 0.151 µM [inhibitor, partial curve, poor fit]"
same,Potency,CRL-7250,"inconclusive: 33.5 µM [inhibitor, single point]"
same,Potency,HEK293,"inconclusive: 29.9 µM [inhibitor, single point]"
same,Potency,NIH3T3,"inconclusive: 21.1 µM [inhibitor, single point]"
same,Potency,MCC-13,inactive
same,Potency,MKL-2,active: 7.5 µM
same,Potency,astro,"inconclusive: 14.1 µM [inhibitor, partial curve, poor fit]"
O=C(Nc1ncc([N+](=O)[O-])s1)c1cccs1,Potency,CRL-7250,"inconclusive: 16.8 µM [inhibitor, partial curve]"
same,Potency,HEK293,active: 15 µM
same,Potency,KB-3-1,"inconclusive: 20.6 µM [inhibitor, partial curve]"
same,Potency,NIH3T3,"inconclusive: 18.8 µM [inhibitor, single point]"
same,Potency,MCC-13,"inconclusive: 33.5 µM [inhibitor, single point]"
same,Potency,MKL-1,"inconclusive: 23.7 µM [inhibitor, partial curve]"
same,Potency,MKL-2,"inconclusive: 9.44 µM [inhibitor, partial curve]"
same,Potency,UISO,"inconclusive: 33.5 µM [inhibitor, single point]"
same,Potency,WaGa,active: 26.6 µM
same,Potency,CASKI,"inconclusive: 39.8 µM [cytotoxic, partial curve, poor fit]"
same,Potency,Es-2,"inconclusive: 22.4 µM [cytotoxic, partial curve, poor fit]"
same,Potency,HeLa,"inconclusive: 35.5 µM [cytotoxic, single point]"
NC1(C(=O)N[C@@H](CCO)c2ccc(Cl)cc2)CCN(c2ncnc3[nH]ccc23)CC1,Potency,CRL-7250,"inconclusive: 11.8 µM [inhibitor, partial curve] and inconclusive: 5.17 µM [inhibitor, partial curve]"
same,Potency,HEK293,active: 469 nM and active: 517 nM
same,Potency,HaCat,"inconclusive: 0.58 µM [inhibitor, full curve]"
same,Potency,MCC-13,inactive
same,Potency,MKL-2,"inconclusive: 16.6 µM [inhibitor, partial curve]"
same,Potency,UISO,"inconclusive: 2.96 µM [inhibitor, full curve, poor fit]"
same,Potency,WaGa,"inconclusive: 5.9 µM [inhibitor, partial curve]"
same,Potency,[1]; HiBiT,"inconclusive: 12.5 µM [inhibitor, partial curve]"
same,Potency,C33A,active: 2.51 µM
same,Potency,CAOV3,"inconclusive: 0.891 µM [cytotoxic, full curve, poor fit]"
same,Potency,CASKI,"inconclusive: 39.8 µM [cytotoxic, single point]"
C[C@@H]1C[C@H]2[C@@H]3C[C@H](F)C4=CC(=O)C(Cl)=C[C@]4(C)[C@@]3(F)[C@@H](O)C[C@]2(C)[C@@]1(O)C(=O)CO,Potency,CRL-7250,"inconclusive: 23.7 µM [inhibitor, single point]"
same,Potency,HEK293,"inconclusive: 33.5 µM [inhibitor, partial curve, poor fit]"
same,max response,KB-3-1,inactive: 11.7%
same,Potency,WaGa,inactive
same,Potency,[2],"inconclusive: 15.8 µM [inhibitor, single point]"
same,Potency,CAOV3,"inconclusive: 3.98 µM [cytotoxic, partial curve, poor fit]"
CN(C)CCOc1ccc(C(=C(CCCl)c2ccccc2)c2ccccc2)cc1,max response,CRL-7250,inactive: -7.14%
same,Potency,HEK293,"inconclusive: 33.2 µM [inhibitor, single point]"
same,outcome,NIH3T3,inactive
NNCCc1ccccc1,Potency,W2,"inconclusive: 5.73 µM [inhibitor, partial curve, poor fit]"
same,Potency,CRL-7250,"inconclusive: 26.6 µM [inhibitor, single point]"
same,Potency,HEK293,"inconclusive: 33.5 µM [inhibitor, single point]"
same,Potency,NIH3T3,"inconclusive: 23.7 µM [inhibitor, single point]"
same,Potency,MKL-2,"inconclusive: 15 µM [inhibitor, single point]"
same,Potency,CAOV3,inactive
